{
  "source": "the supplement of paper PMC8728848",
  "binders": {"B1": {"name": "MGL6A (Homo sapiens) (protein)", "chain": "MTRTYENFQYLENKVKVQGFKNGPLPLQSLLQRLCSGPCHLLLSLGLGLLLLVIICVVGFQNSKFQRDLVTLRTDFSNFTSNTVAEIQALTSQGSSLEETIASLKAEVEGFKQERQAVHSEMLLRVQQLVQDLKKLTCQVATLNNNGEEASTEGTCCPVNWVEHQDSCYWFSHSGMSWAEAEKYCQLKNAHLVVINSREEQNFVQKYLGSAYTWMGLSDPEGAWKWVDGTDYATGFQNWKPGQPDDWQGHGLGGGEDCAHFTPDGRWNDDVCQRPYHWVCEAGLGQTSQESH"}},
  "test_in_all_cases": "glycan array binding signal (z-score within array); higher = stronger binding",
  "conditions_in_all_cases": "glycan notation: IUPAC condensed, linker removed; mutation: H262T",
  "key": {"[1]": {"target": "Gal(a1-3)Gal", "in_short": "(§1)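 Negative Z-scores can be read as non-binding. The Z-score is calculated within each array and then averaged across arrays of one protein sequence at different concentrations or buffers and across linkers. Arrays, 3228 in all, were curated from the Consortium for Functional Glycomics database and kept only where the protein sequence was available.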"}, "[2]": {"target": "Gal(a1-3)Gal(b1-3)GlcNAc", "in_short": "as §1"}, "[3]": {"target": "Gal(a1-3)Gal(b1-3)GlcNAc(b1-2)Man", "in_short": "as §1"}, "[4]": {"target": "Gal(a1-3)Gal(b1-3)GlcNAc(b1-2)Man(a1-3)[Gal(a1-3)Gal(b1-3)GlcNAc(b1-2)Man(a1-6)]Man(b1-4)GlcNAc(b1-4)GlcNAc", "in_short": "as §1"}, "[5]": {"target": "Gal(a1-3)Gal(b1-3)GlcNAc(b1-3)GalNAc", "in_short": "as §1"}, "[6]": {"target": "Gal(a1-3)Gal(b1-3)GlcNAc(b1-6)GalNAc", "in_short": "as §1"}, "[7]": {"target": "Gal(a1-3)Gal(b1-3)[Fuc(a1-4)]GlcNAc(b1-2)Man(a1-3)[Gal(a1-3)Gal(b1-3)[Fuc(a1-4)]GlcNAc(b1-2)Man(a1-6)]Man(b1-4)GlcNAc(b1-4)GlcNAc", "in_short": "as §1"}, "[8]": {"target": "Gal(a1-3)Gal(b1-4)Glc", "in_short": "as §1"}, "[9]": {"target": "Gal(a1-3)Gal(b1-4)GlcNAc", "in_short": "as §1"}, "[10]": {"target": "Gal(a1-3)Gal(b1-4)GlcNAc(b1-2)Man", "in_short": "as §1"}, "[11]": {"target": "Gal(a1-3)Gal(b1-4)GlcNAc(b1-2)Man(a1-3)[Gal(a1-3)Gal(b1-4)GlcNAc(b1-2)Man(a1-6)]Man(b1-4)GlcNAc(b1-4)GlcNAc", "in_short": "as §1"}, "[12]": {"target": "Gal(a1-3)Gal(b1-4)GlcNAc(b1-3)GalNAc", "in_short": "as §1"}, "[13]": {"target": "Gal(a1-3)Gal(b1-4)GlcNAc(b1-6)GalNAc", "in_short": "as §1"}, "[14]": {"target": "Gal(a1-3)Gal(b1-4)[Fuc(a1-3)]GlcNAc", "in_short": "as §1"}, "[15]": {"target": "Gal(a1-3)Gal(b1-4)[Fuc(a1-3)]GlcNAc(b1-2)Man(a1-3)[Gal(a1-3)Gal(b1-4)[Fuc(a1-3)]GlcNAc(b1-2)Man(a1-6)]Man(b1-4)GlcNAc(b1-4)GlcNAc", "in_short": "as §1"}, "[16]": {"target": "Gal(a1-3)GalNAc", "in_short": "as §1"}, "[17]": {"target": "Gal(a1-3)[Gal(a1-4)]Gal(b1-4)GlcNAc", "in_short": "as §1"}, "[18]": {"target": "Gal(a1-4)Gal(b1-3)GlcNAc(b1-2)Man(a1-3)[Gal(a1-4)Gal(b1-3)GlcNAc(b1-2)Man(a1-6)]Man(b1-4)GlcNAc(b1-4)GlcNAc", "in_short": "as §1"}, "[19]": {"target": "Gal(a1-4)Gal(b1-4)Glc", "in_short": "as §1"}, "[20]": {"target": "Gal(a1-4)Gal(b1-4)GlcNAc", "in_short": "as §1"}, "[21]": {"target": "Gal(a1-4)Gal(b1-4)GlcNAc(b1-2)Man(a1-3)[Gal(a1-4)Gal(b1-4)GlcNAc(b1-2)Man(a1-6)]Man(b1-4)GlcNAc(b1-4)GlcNAc", "in_short": "as §1"}, "[22]": {"target": "Gal(a1-4)Gal(b1-4)GlcNAc(b1-3)Gal(b1-4)Glc", "in_short": "as §1"}, "[23]": {"target": "Gal(a1-4)GlcNAc", "in_short": "as §1"}, "[24]": {"target": "Gal(a1-6)Glc", "in_short": "as §1"}, "[25]": {"target": "Gal(b1-2)Gal", "in_short": "as §1"}, "[26]": {"target": "Gal(b1-3)Gal", "in_short": "as §1"}, "[27]": {"target": "Gal(b1-3)Gal(b1-4)GlcNAc", "in_short": "as §1"}, "[28]": {"target": "Gal(b1-3)GalNAc", "in_short": "as §1"}, "[29]": {"target": "Gal(b1-3)GalNAc(a1-3)[Fuc(a1-2)]Gal(b1-4)Glc", "in_short": "as §1"}, "[30]": {"target": "Gal(b1-3)GalNAc(a1-3)[Fuc(a1-2)]Gal(b1-4)GlcNAc", "in_short": "as §1"}, "[31]": {"target": "Gal(b1-3)GalNAc(b1-3)Gal", "in_short": "as §1"}, "[32]": {"target": "Gal(b1-3)GalNAc(b1-3)Gal(a1-4)Gal(b1-4)Glc", "in_short": "as §1"}, "[33]": {"target": "Gal(b1-3)GalNAc(b1-4)Gal(b1-4)Glc", "in_short": "as §1"}, "[34]": {"target": "Gal(b1-3)GalNAc(b1-4)[Neu5Ac(a2-3)]Gal(b1-4)Glc", "in_short": "as §1"}, "[35]": {"target": "Gal(b1-3)GlcNAc", "in_short": "as §1"}, "[36]": {"target": "Gal(b1-3)GlcNAc(a1-3)Gal(b1-4)GlcNAc", "in_short": "as §1"}, "[37]": {"target": "Gal(b1-3)GlcNAc(a1-6)Gal(b1-4)GlcNAc", "in_short": "as §1"}, "[38]": {"target": "Gal(b1-3)GlcNAc(b1-2)Man", "in_short": "as §1"}},
  "note": "Some of the results follow.",
  "data": [
    {"binder": "B1", "values": [
      {"measurement": "glycan array binding signal (z-score)", "setting": "[1]", "result": -0.171},
      {"measurement": "glycan array binding signal (z-score)", "setting": "[2]", "result": -0.165},
      {"measurement": "glycan array binding signal (z-score)", "setting": "[3]", "result": -0.175},
      {"measurement": "glycan array binding signal (z-score)", "setting": "[4]", "result": -0.167},
      {"measurement": "glycan array binding signal (z-score)", "setting": "[5]", "result": -0.173},
      {"measurement": "glycan array binding signal (z-score)", "setting": "[6]", "result": 7.68},
      {"measurement": "glycan array binding signal (z-score)", "setting": "[7]", "result": -0.167},
      {"measurement": "glycan array binding signal (z-score)", "setting": "[8]", "result": -0.172},
      {"measurement": "glycan array binding signal (z-score)", "setting": "[9]", "result": -0.172},
      {"measurement": "glycan array binding signal (z-score)", "setting": "[10]", "result": -0.18},
      {"measurement": "glycan array binding signal (z-score)", "setting": "[11]", "result": -0.173},
      {"measurement": "glycan array binding signal (z-score)", "setting": "[12]", "result": -0.175},
      {"measurement": "glycan array binding signal (z-score)", "setting": "[13]", "result": 7.07},
      {"measurement": "glycan array binding signal (z-score)", "setting": "[14]", "result": -0.18},
      {"measurement": "glycan array binding signal (z-score)", "setting": "[15]", "result": -0.171},
      {"measurement": "glycan array binding signal (z-score)", "setting": "[16]", "result": -0.167},
      {"measurement": "glycan array binding signal (z-score)", "setting": "[17]", "result": -0.163},
      {"measurement": "glycan array binding signal (z-score)", "setting": "[18]", "result": -0.17},
      {"measurement": "glycan array binding signal (z-score)", "setting": "[19]", "result": -0.154},
      {"measurement": "glycan array binding signal (z-score)", "setting": "[20]", "result": -0.163},
      {"measurement": "glycan array binding signal (z-score)", "setting": "[21]", "result": -0.168},
      {"measurement": "glycan array binding signal (z-score)", "setting": "[22]", "result": -0.173},
      {"measurement": "glycan array binding signal (z-score)", "setting": "[23]", "result": -0.185},
      {"measurement": "glycan array binding signal (z-score)", "setting": "[24]", "result": -0.172},
      {"measurement": "glycan array binding signal (z-score)", "setting": "[25]", "result": -0.182},
      {"measurement": "glycan array binding signal (z-score)", "setting": "[26]", "result": -0.169},
      {"measurement": "glycan array binding signal (z-score)", "setting": "[27]", "result": -0.175},
      {"measurement": "glycan array binding signal (z-score)", "setting": "[28]", "result": -0.165},
      {"measurement": "glycan array binding signal (z-score)", "setting": "[29]", "result": -0.166},
      {"measurement": "glycan array binding signal (z-score)", "setting": "[30]", "result": -0.176},
      {"measurement": "glycan array binding signal (z-score)", "setting": "[31]", "result": -0.168},
      {"measurement": "glycan array binding signal (z-score)", "setting": "[32]", "result": -0.166},
      {"measurement": "glycan array binding signal (z-score)", "setting": "[33]", "result": -0.164},
      {"measurement": "glycan array binding signal (z-score)", "setting": "[34]", "result": -0.156},
      {"measurement": "glycan array binding signal (z-score)", "setting": "[35]", "result": -0.173},
      {"measurement": "glycan array binding signal (z-score)", "setting": "[36]", "result": -0.173},
      {"measurement": "glycan array binding signal (z-score)", "setting": "[37]", "result": -0.176},
      {"measurement": "glycan array binding signal (z-score)", "setting": "[38]", "result": -0.172}
    ]}
  ]
}
